Assay results: patent US20260201007A1 (University of California, published 2026)

T1: IL2Rα ectodomain with a C-terminal 6×His tag (UniProt P01589 22-240, limits assumed)
T1 construct: extracellular domain; Purified on Nickel-NTA; Neither the species nor the construct limits are stated; also called CD25
T1 sequence: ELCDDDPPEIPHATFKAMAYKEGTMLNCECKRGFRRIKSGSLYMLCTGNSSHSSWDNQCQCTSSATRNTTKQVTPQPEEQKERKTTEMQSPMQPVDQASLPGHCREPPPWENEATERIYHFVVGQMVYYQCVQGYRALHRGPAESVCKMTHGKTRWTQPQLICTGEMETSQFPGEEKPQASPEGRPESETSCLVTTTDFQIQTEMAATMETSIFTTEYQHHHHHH

T2: IL2Rβ/γ Fc heterodimer (UniProt P14784 27-240; P31785 23-262)
T2 construct: extracellular domain; also called IL2Rβ/γc; not shown: heterodimerizing Fc portion
T2 sequence 1: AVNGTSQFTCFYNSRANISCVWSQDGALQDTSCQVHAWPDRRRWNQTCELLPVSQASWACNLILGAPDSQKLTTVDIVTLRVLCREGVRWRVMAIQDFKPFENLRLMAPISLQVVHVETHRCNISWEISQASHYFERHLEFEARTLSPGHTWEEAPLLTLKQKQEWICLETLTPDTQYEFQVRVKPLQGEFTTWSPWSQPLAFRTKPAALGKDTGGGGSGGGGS
T2 sequence 2: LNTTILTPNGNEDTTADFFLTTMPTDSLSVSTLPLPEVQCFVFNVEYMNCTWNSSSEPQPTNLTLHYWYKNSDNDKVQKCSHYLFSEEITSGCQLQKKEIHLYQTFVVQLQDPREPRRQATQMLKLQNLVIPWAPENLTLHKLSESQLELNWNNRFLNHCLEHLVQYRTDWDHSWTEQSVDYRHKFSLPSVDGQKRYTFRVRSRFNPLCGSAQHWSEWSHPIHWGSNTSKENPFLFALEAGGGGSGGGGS

B1: WT N-term (Fc fusion)
chain: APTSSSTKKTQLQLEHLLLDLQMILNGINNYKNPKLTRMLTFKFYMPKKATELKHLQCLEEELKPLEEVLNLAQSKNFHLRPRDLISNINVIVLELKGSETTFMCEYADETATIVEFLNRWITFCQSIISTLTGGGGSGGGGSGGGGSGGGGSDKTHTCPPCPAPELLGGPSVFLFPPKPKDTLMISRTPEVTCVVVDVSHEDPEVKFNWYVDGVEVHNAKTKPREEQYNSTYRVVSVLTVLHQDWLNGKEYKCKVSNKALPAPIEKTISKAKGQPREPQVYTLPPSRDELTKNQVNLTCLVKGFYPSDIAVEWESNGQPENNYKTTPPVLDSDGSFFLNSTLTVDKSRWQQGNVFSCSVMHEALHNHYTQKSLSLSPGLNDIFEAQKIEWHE
modifications: biotinylated with BirA enzyme (AviTag)
notes: also called WT N-term (Mono); monomeric biotinylated IL-2/Fc fusion, wild type, IL-2 at the N-terminus of Fc
B2: F42Q N-Term (Fc fusion)
chain: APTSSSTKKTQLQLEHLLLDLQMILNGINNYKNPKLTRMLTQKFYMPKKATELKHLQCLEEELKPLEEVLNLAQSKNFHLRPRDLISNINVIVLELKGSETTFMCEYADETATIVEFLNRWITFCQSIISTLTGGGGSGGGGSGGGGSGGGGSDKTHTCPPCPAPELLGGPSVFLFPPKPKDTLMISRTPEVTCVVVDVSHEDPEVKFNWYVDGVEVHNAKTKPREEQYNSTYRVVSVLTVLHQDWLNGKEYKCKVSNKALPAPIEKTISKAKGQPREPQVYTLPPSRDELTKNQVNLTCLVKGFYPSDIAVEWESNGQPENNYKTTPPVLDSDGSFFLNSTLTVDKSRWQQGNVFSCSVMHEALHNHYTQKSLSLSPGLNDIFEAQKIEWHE
modifications: biotinylated with BirA enzyme (AviTag)
notes: The mutation is numbered on mature IL-2; also called F42Q N-Term (Mono)
B3: H16N N-term (Fc fusion)
chain: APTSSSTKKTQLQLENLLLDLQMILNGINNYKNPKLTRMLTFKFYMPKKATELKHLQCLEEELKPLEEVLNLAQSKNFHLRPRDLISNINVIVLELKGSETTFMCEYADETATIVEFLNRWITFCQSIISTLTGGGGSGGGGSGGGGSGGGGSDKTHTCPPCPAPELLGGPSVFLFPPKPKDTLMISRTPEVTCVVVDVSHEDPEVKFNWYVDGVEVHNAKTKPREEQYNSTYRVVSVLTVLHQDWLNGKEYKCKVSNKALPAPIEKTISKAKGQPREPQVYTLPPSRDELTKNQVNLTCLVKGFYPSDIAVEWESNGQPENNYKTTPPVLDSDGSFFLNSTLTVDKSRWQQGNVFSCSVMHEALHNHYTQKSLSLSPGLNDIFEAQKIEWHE
modifications: biotinylated with BirA enzyme (AviTag)
notes: The mutation is numbered on mature IL-2; also called H16N N-term (Mono)
B4: R38Q N-term (Fc fusion)
chain: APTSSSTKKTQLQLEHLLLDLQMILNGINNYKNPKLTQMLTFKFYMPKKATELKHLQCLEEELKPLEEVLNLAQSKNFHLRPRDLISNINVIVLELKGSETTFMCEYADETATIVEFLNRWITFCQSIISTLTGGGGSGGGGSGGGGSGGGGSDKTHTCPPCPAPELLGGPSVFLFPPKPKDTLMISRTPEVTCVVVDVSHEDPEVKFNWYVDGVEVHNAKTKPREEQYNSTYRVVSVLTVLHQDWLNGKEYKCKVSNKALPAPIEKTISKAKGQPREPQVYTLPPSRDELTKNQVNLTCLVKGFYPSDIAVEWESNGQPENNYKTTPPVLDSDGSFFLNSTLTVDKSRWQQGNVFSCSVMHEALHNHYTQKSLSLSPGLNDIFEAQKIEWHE
modifications: biotinylated with BirA enzyme (AviTag)
notes: The mutation is numbered on mature IL-2; also called R38Q N-term (Mono)
B5: WT C-term (Fc fusion)
chain: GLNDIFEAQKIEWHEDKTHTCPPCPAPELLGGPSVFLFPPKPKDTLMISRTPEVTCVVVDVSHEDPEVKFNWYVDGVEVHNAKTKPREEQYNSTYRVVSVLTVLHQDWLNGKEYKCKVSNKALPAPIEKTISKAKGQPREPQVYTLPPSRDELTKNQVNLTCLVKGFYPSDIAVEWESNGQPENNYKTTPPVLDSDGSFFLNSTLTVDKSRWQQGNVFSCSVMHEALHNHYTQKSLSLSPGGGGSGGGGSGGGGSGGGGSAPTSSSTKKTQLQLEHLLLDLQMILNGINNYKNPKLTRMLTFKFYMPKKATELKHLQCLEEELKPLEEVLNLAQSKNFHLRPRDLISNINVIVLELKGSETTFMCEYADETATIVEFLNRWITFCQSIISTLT
modifications: biotinylated with BirA enzyme (AviTag)
notes: also called WT C-term (Mono); monomeric biotinylated IL-2/Fc fusion, wild type, IL-2 at the C-terminus of Fc
B6: N88D C-term (Fc fusion)
chain: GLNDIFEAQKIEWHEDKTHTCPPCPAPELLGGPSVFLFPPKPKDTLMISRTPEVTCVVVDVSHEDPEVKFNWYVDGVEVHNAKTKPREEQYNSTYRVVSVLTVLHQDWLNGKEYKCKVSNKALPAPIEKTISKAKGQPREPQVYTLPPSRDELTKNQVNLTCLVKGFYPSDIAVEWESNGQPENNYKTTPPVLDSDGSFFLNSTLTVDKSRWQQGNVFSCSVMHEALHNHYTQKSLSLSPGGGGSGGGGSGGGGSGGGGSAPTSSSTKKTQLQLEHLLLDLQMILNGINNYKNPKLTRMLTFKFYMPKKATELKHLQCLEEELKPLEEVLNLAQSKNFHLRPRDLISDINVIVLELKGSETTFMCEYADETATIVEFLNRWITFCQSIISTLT
modifications: biotinylated with BirA enzyme (AviTag)
notes: The mutation is numbered on mature IL-2; also called N88D C-term (Mono); monomeric N88D
B7: V91K C-term (Fc fusion)
chain: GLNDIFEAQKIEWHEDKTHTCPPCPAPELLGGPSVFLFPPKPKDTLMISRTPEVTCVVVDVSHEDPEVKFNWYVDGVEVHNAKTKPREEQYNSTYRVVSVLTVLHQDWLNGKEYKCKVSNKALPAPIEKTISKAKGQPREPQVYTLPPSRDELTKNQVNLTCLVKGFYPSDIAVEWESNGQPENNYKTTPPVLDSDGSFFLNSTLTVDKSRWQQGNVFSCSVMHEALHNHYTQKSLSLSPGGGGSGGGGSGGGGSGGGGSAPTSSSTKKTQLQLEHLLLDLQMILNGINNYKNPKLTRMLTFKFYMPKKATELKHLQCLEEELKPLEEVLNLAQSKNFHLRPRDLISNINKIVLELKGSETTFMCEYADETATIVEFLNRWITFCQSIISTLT
modifications: biotinylated with BirA enzyme (AviTag)
notes: also called V91K C-term (Mono)

Target: T1, IL2Rα ectodomain with a C-terminal …
Assay: Octet BLI; biotinylated monomeric IL-2/Fc on streptavidin sensors, IL2Rα in solution; equilibrium binding

Row | Binder | Kd
1 | B1 | 0.19 nM
2 | B2 | 9.48 nM
3 | B3 | 0.43 nM
4 | B4 | 0.71 nM
5 | B5 | 0.54 nM
6 | B6 | 1.01 nM
7 | B7 | 0.69 nM

Target: T2, IL2Rβ/γ Fc heterodimer
Assay: Octet BLI; biotinylated monomeric IL-2/Fc on streptavidin sensors, IL2Rβ/γ Fc heterodimer in solution; 1:1 kinetic fit

Row | Binder | Kd
8 | B1 | 5.3 nM
9 | B2 | 2.81 nM
10 | B3 | 22.4 nM
11 | B4 | 4 nM
12 | B5 | 3.04 nM
13 | B6 | 24 nM
